Reference: the supplement of paper PMC7826260
Some of the results follow. Each Rep nickase domain was tested in vitro on the same pool of single strands for 1 h at 37 °C with 3 µM enzyme; only the middle of the 90-letter strands is printed. Numbers give uncut DNA relative to the enzyme-free pool, as log2; more negative means more cut, near 0 not cut, and no call is made. Shares of all reads are compared, so uncut sequences can rise above 0 when many others are cut.

What was measured:
Assay in all cases: uncleaved DNA left, log2 of reads against the no-enzyme library (log2 ratio); higher = less cleavage (more negative = more Rep cleavage of the k-mer); sequences stand for … in CTCGTCCG…ACCGGAGA
[1] = test system: T1, Rep nickase domain of Muscovy duck circovirus
T1 sequence (residues 1-111, tag not shown): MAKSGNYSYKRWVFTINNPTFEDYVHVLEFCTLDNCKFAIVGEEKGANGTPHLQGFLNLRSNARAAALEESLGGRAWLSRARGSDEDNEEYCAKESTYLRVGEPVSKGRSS
Description: (§1)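 A pool of 90-nt single-stranded DNAs with seven random bases just before the constant AC of the nick site (name = the seven bases) was cut by 3 µM recombinant His6-SUMO-tagged Rep nickase domain (300 nM DNA, 50 mM HEPES pH 8.0, 50 mM NaCl, 1 mM MnCl2, 1 h, 37 °C, three replicates). Uncut DNA was amplified and sequenced.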

[2] = test system: T2, Rep nickase domain of banana bunchy top virus
T2 sequence (residues 1-94, tag not shown): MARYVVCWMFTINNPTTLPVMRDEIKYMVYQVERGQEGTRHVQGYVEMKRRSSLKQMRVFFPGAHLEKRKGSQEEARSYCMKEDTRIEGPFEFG
Description: as §1

[3] = test system: T3, Rep nickase domain of cabbage leaf curl virus
T3 sequence (residues 1-116, tag not shown): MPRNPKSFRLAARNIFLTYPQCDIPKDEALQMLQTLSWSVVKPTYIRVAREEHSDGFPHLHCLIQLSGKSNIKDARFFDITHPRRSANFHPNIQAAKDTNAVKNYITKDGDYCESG
Description: as §1

[4] = test system: T4, Rep nickase domain of chickpea chlorotic dwarf virus
T4 sequence (residues 1-124, tag not shown): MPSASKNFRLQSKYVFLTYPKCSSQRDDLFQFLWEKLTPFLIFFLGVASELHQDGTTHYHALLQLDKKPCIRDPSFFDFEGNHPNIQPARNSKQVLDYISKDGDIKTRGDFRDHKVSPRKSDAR
Description: as §1

[5] = test system: T5, Rep nickase domain of faba bean necrotic yellows virus
T5 sequence (residues 1-98, tag not shown): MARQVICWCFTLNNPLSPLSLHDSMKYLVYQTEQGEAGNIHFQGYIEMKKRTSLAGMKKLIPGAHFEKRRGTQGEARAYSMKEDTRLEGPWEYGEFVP
Description: as §1

[6] = test system: T6, Rep nickase domain of maize striate mosaic virus
T6 sequence (residues 1-117, tag not shown): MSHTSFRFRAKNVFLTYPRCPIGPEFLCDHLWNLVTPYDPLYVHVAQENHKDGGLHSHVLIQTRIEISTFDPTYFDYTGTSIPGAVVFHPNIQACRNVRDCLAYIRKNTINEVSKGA
Description: as §1

[7] = test system: T7, Rep nickase domain of porcine circovirus 2
T7 sequence (residues 2-116, tag not shown): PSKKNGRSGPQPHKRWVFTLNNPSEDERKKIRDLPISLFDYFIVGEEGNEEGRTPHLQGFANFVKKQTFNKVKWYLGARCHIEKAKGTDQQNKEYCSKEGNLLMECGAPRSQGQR
Description: as §1

[8] = test system: T8, Rep nickase domain of tomato golden mosaic virus
T8 sequence (residues 1-124, tag not shown): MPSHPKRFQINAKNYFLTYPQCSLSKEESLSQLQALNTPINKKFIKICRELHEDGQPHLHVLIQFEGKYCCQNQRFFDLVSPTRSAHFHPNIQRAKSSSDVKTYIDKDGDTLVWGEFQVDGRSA
Description: as §1

[9] = test system: T9, Rep nickase domain of tomato yellow leaf curl virus
T9 sequence (residues 1-136, tag not shown): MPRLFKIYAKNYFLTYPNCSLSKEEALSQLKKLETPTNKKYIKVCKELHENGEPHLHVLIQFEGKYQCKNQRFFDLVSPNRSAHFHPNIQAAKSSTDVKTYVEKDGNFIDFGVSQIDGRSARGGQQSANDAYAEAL
Description: as §1

[10] = test system: T10, Rep nickase domain of wheat dwarf virus
T10 sequence (residues 1-137, tag not shown): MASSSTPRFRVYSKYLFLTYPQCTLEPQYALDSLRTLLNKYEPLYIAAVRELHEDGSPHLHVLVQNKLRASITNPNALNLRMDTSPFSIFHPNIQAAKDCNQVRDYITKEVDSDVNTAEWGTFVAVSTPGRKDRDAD
Description: as §1

Sequence	uncleaved DNA left (log2) [1]	uncleaved DNA left (log2) [2]	uncleaved DNA left (log2) [3]	uncleaved DNA left (log2) [4]	uncleaved DNA left (log2) [5]	uncleaved DNA left (log2) [6]	uncleaved DNA left (log2) [7]	uncleaved DNA left (log2) [8]	uncleaved DNA left (log2) [9]	uncleaved DNA left (log2) [10]
TATCTCA	-0.061	0.052	-0.171	-1.98	-0.0715	-0.137	-0.145	-0.0926	0.0662	0.0121
TCTAGTG	0.0714	-0.0237	-0.407	-0.783	0.0475	-1.06	0.151	0.0861	0.0697	-0.0753
TGCAATG	0.0118	0.08	-0.172	0.255	-0.00103	0.642	0.0285	0.186	-0.217	0.138
CTACCAC	-0.201	-0.14	-0.265	-1.9	-0.156	-0.807	-0.812	-0.222	-0.00598	-0.129
GCTGGCC	0.0757	0.034	0.164	0.784	0.106	1.15	0.152	0.129	0.0875	0.146
TCTCTGT	0.0392	-0.198	0.0705	-0.447	-0.0978	-0.321	-0.15	-0.0277	-0.0212	-0.0906
CCGCATA	0.0868	-0.0126	0.00597	-0.691	-0.199	-0.426	-0.165	0.171	0.0776	-0.0786
GTGCTGA	0.0301	0.0903	0.205	0.946	-0.0425	1.42	0.145	0.0597	0.00473	0.177
CCGGGTC	0.0519	-0.0353	0.405	0.681	-0.186	1.6	0.168	-0.0541	0.0521	0.00592
AAGTATA	-0.0379	-0.0982	-0.126	-1.81	-0.24	0.322	-3.2	0.0443	-0.0661	0.0578
CTAAGTT	0.0356	-0.143	-3.36	-2.96	-0.195	-1.42	-0.205	-0.665	-0.0876	-1.45
CGTTCCT	-0.393	-0.0466	-0.0262	-1.36	-0.103	0.0145	-0.779	-0.151	0.00333	0.046
CAGTAGC	-0.0209	-0.068	-0.632	-0.705	0.00508	-1.29	-0.607	-0.0412	-0.00625	-0.137
ATTGATC	0.093	0.0522	0.0783	0.46	-0.0424	0.322	0.147	0.119	0.0478	0.109
GCACACG	-0.0724	-0.0775	-0.788	-0.261	-0.0621	-0.951	0.112	-0.0817	-0.0655	-0.144
GAAACAA	0.084	0.153	0.507	0.893	0.0522	1.22	0.257	0.0323	0.144	0.25
CCTTAGG	-0.0595	0.0293	0.336	1.13	-0.0175	1.01	0.00971	-0.0525	-0.0451	0.00565
TTGCAAC	0.037	0.0174	-0.441	-1.16	0.077	-0.978	0.0443	-0.0827	0.0883	-0.00871
TCAACCT	-0.158	-0.0965	-0.184	-2.5	-0.031	-0.459	-1.16	-0.145	0.0192	-0.0815
AAACTGG	0.0969	0.147	0.141	0.232	0.18	-0.224	0.243	0.22	0.144	0.337
ACGGTAC	-0.0652	0.084	-0.0761	-0.295	-0.0429	-0.242	0.0896	-0.0811	0.0426	0.0869
GGATAGA	0.0496	0.137	0.794	1.72	0.0905	2	0.209	0.0525	0.0145	0.157
AGCCACA	-0.00701	0.0953	0.203	0.0258	0.0766	0.762	-0.066	0.0676	0.0324	0.115
CCGTCCG	0.29	0.143	-0.547	0.164	0.176	-0.459	0.306	0.0897	0.0685	-0.13
AATCCCT	0.0897	-0.0972	-0.128	-2.49	0.162	0.0188	-1.93	0.0288	0.125	0.128
GCGCATA	-0.0343	-0.0343	0.0177	0.419	-0.0439	0.345	-0.153	-0.0987	-0.0257	-0.1
AGGAATT	-0.0162	0.0707	0.397	0.377	0.197	1.5	-0.494	0.0193	-0.0323	0.186
TGAAAAT	0.0519	0.159	0.334	-0.00987	0.0993	0.164	-0.168	0.104	0.175	0.258
GAGGCCA	0.0819	0.17	0.654	1.16	0.0361	1.88	0.0677	0.104	0.078	0.14
TCTATGA	0.137	0.111	0.195	0.252	0.0817	-0.466	0.0296	0.0763	0.00172	0.00975
